The other results are listed elsewhere or left out. At the low end of the ranking, values are background and their order means little.

In the assay the target is GST-SBP-SLBP (stem-loop binding protein) (UniProt Q14493). In words: targeted RNA Bind-n-Seq.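 Also: DESeq read counts versus GST-SBP nonspecific binding control pulldown.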 The settings on record: RBNS binding buffer: 25 mM Tris pH 7.5, 150 mM KCl, 3 mM MgCl2, 0.1% Tween, 0.5 mg/mL BSA, 1 mM DTT; 27 nM protein, 750 pM RNA pool; temperature not stated; high values mean tight binding.
In the case of “GGUCACGUCUCAAUCAACUCAUACGAGGGGGGGAAAACCCCUUUGCCCUCAAUUUCAACAGCUCGCAGUCAAG”, the binding signal (log2 fold change) is -0.243.
To “GGUCACGUCUCAAUCAACUCUUCCCCAGGAGUUUUCUCCUGCAAUCUCAACAGCUCGCAGUCAAG” belongs 0.084; to “GGUCACGUCUCAAUCAACUCAUUCUCCAGGGAAAUCCCUGGUAUAUUCAACAGCUCGCAGUCAAG”, 0.269; to “GGUCACGUCUCAAUCAACUCUAUCUCCAGGGAAACCCCUGGCAUACUCAACAGCUCGCAGUCAAG”, 0.0461.
With “GGUCACGUCUCAAUCAACUCAUCGUCAGGAGUUUCCUCCUGCAAUCUCAACAGCUCGCAGUCAAG”, the binding signal (log2 fold change) worked out at 0.058.
To “GGUCACGUCUCAAUCAACUCUAUGUCCAGGGAAAGCCCUGGUUUUUUCAACAGCUCGCAGUCAAG” belongs -0.186; to “GGUCACGUCUCAAUCAACUCAUCGCCCAGGGAAAACCCUGGUAUAUUCAACAGCUCGCAGUCAAG”, -0.314; to “GGUCACGUCUCAAUCAACUCUUCCUCAGGAGUUUUCUCCUGUAAACUCAACAGCUCGCAGUCAAG”, -0.0693.
Next, “GGUCACGUCUCAAUCAACUCAGUCUCAGGAGUUUUCUCCUGUAAAUUCAACAGCUCGCAGUCAAG”: -0.149; “GGUCACGUCUCAAUCAACUCAAGUCCAGGAGUUUUCUCCUGUAAUUUCAACAGCUCGCAGUCAAG”: -0.0131; “GGUCACGUCUCAAUCAACUCUUCCUCAGGAGUUUUCUCCUGCUUAUUCAACAGCUCGCAGUCAAG”: -0.0206.
To “GGUCACGUCUCAAUCAACUCAUUUCCCAGGGAAAGCCCUGGUUAUCUCAACAGCUCGCAGUCAAG” belongs 0.0545.
On to “GGUCACGUCUCAAUCAACUCAUCGUCAGGAGUUUGCUCCUGUAUUUUCAACAGCUCGCAGUCAAG”, for which the binding signal (log2 fold change) was determined as 0.0128.
Consider “GGUCACGUCUCAAUCAACUCCAUCGAGGGGGGGAAAACCCCUUUACCCUCAUCUUCAACAGCUCGCAGUCAAG”, for which the binding signal (log2 fold change) was -0.0167.
To “GGUCACGUCUCAAUCAACUCUACUCCCAGGGAAACCCCUGGCAUACUCAACAGCUCGCAGUCAAG” belongs -0.00558; to “GGUCACGUCUCAAUCAACUCAUGUCCCAGGGAAACCCCUGGUUUUUUCAACAGCUCGCAGUCAAG”, -0.234; to “GGUCACGUCUCAAUCAACUCAGUUCCAGGAGUUUUCUCCUGCUUUUUCAACAGCUCGCAGUCAAG”, 0.00165.
To “GGUCACGUCUCAAUCAACUCUUCUUCCAGGGAAAGCCCUGGCUAUUUCAACAGCUCGCAGUCAAG” belongs 0.333; to “GGUCACGUCUCAAUCAACUCAAUCUCCAGGGAAACCCCUGGCUAUCUCAACAGCUCGCAGUCAAG”, 0.112; to “GGUCACGUCUCAAUCAACUCAUCCUCAGGAGUUUCCUCCUGUAUACUCAACAGCUCGCAGUCAAG”, 0.262.
To “GGUCACGUCUCAAUCAACUCAACUCCCAGGGAAACCCCUGGUAAACUCAACAGCUCGCAGUCAAG” belongs -0.121; to “GGUCACGUCUCAAUCAACUCUUUCGCAGGAGUUUUCUCCUGGUUUCUCAACAGCUCGCAGUCAAG”, 0.182; to “GGUCACGUCUCAAUCAACUCAAUCUCCAGGGAAACCCCUGGCAAUUUCAACAGCUCGCAGUCAAG”, 0.00699.
For the sequence “GGUCACGUCUCAAUCAACUCUACUCCCAGGGAAAGCCCUGGCAUUUUCAACAGCUCGCAGUCAAG”, the binding signal (log2 fold change) came to 0.0833.
To “GGUCACGUCUCAAUCAACUCUCACGAGGGGGGGAAAACCCCUUUACCCUCUUAUUCAACAGCUCGCAGUCAAG” belongs 0.196; to “GGUCACGUCUCAAUCAACUCAAGUCCCAGGGAAAUCCCUGGUUAAUUCAACAGCUCGCAGUCAAG”, -0.392; to “GGUCACGUCUCAAUCAACUCAACUUCAGGAGUUUACUCCUGUUUAUUCAACAGCUCGCAGUCAAG”, -0.138.
Next, “GGUCACGUCUCAAUCAACUCUAUUCCCAGGGAAAUCCCUGGCAUUCUCAACAGCUCGCAGUCAAG”: -0.0783.
In the case of “GGUCACGUCUCAAUCAACUCAAUUUCAGGAGUUUUCUCCUGUUAACUCAACAGCUCGCAGUCAAG”, the binding signal (log2 fold change) turned out to be 0.208.
To “GGUCACGUCUCAAUCAACUCUACUUCCAGGGAAAACCCUGGUAUUUUCAACAGCUCGCAGUCAAG” belongs -0.228; to “GGUCACGUCUCAAUCAACUCCUUAGAGGGGGGGAAAACCCCUUUACCCUCACAAUCAACAGCUCGCAGUCAAG”, 0.216.
Turning to “GGUCACGUCUCAAUCAACUCUAUUCCAGGAGUUUACUCCUGUUAACUCAACAGCUCGCAGUCAAG”, the binding signal (log2 fold change) was determined as 0.0473.
Turning to “GGUCACGUCUCAAUCAACUCAUCUCCAGGAGUUUUCUCCUGCAAAUUCAACAGCUCGCAGUCAAG”, the binding signal (log2 fold change) stood at 0.103.
To “GGUCACGUCUCAAUCAACUCUAUCUCAGGAGUUUACUCCUGCUAUCUCAACAGCUCGCAGUCAAG” belongs 0.227; to “GGUCACGUCUCAAUCAACUCUUCUCCAGGAGUUUACUCCUGCUUAUUCAACAGCUCGCAGUCAAG”, -0.182; to “GGUCACGUCUCAAUCAACUCACUAGAGGGGGGGAAAACCCCUUUACCCUCAUAUUCAACAGCUCGCAGUCAAG”, -0.033.
To “GGUCACGUCUCAAUCAACUCUUUUUCCAGGGAAAUCCCUGGCGUUUUCAACAGCUCGCAGUCAAG” belongs 0.172; to “GGUCACGUCUCAAUCAACUCCUACGAGGGGGGGAAAACCCCUUUACCCUCUCAAUCAACAGCUCGCAGUCAAG”, -0.429; to “GGUCACGUCUCAAUCAACUCUACGCCAGGAGUUUUCUCCUGUUUAUUCAACAGCUCGCAGUCAAG”, 0.267.
As for “GGUCACGUCUCAAUCAACUCUUCUUCAGGAGUUUACUCCUGUUUUUUCAACAGCUCGCAGUCAAG”, the binding signal (log2 fold change) is -0.197.
Next, “GGUCACGUCUCAAUCAACUCUUCCCCCAGGGAAAACCCUGGCAAUCUCAACAGCUCGCAGUCAAG”: 0.035; “GGUCACGUCUCAAUCAACUCAUUCGAGGGGGGGAAAACCCCUUUGCCCUCAUUCUCAACAGCUCGCAGUCAAG”: 0.195.
To “GGUCACGUCUCAAUCAACUCUAUUUCAGGAGUUUUCUCCUGUAUUUUCAACAGCUCGCAGUCAAG” belongs -0.0406; to “GGUCACGUCUCAAUCAACUCUAUUUCCAGGGAAACCCCUGGCAUACUCAACAGCUCGCAGUCAAG”, -0.0479; to “GGUCACGUCUCAAUCAACUCCCUCGAGGGGGGGAAAACCCCUUUACCCUCAUCAUCAACAGCUCGCAGUCAAG”, 0.187.
For “GGUCACGUCUCAAUCAACUCAUCUCCCAGGGAAACCCCUGGCUUACUCAACAGCUCGCAGUCAAG”, the binding signal (log2 fold change) worked out at 0.169.
Next, “GGUCACGUCUCAAUCAACUCUUUCCCCAGGGAAAGCCCUGGCAUUCUCAACAGCUCGCAGUCAAG”: -0.0176.
In the case of “GGUCACGUCUCAAUCAACUCUCCAGAGGGGGGGAAAACCCCUUUACCCUCAACAUCAACAGCUCGCAGUCAAG”, the binding signal (log2 fold change) came to 0.304.

The values are drawn from article PMC5892938.
